# In paper PMC4336329 (PLoS ONE, 2015):
# In all, about 310,000 compounds went through this assay and about 2,200 (0.71%) showed an effect of 50% or more. The effect is printed as a negative number. Some of the results follow.
# Biological target: human ether-à-go-go-related gene (hERG) potassium channel (human, UniProt Q12809)
# Assay: primary screen, population patch clamp on CHO cells stably expressing hERG
# Chain of human ether-à-go-go-related gene (hERG) potassium channel (Q12809 whole entry, looked up): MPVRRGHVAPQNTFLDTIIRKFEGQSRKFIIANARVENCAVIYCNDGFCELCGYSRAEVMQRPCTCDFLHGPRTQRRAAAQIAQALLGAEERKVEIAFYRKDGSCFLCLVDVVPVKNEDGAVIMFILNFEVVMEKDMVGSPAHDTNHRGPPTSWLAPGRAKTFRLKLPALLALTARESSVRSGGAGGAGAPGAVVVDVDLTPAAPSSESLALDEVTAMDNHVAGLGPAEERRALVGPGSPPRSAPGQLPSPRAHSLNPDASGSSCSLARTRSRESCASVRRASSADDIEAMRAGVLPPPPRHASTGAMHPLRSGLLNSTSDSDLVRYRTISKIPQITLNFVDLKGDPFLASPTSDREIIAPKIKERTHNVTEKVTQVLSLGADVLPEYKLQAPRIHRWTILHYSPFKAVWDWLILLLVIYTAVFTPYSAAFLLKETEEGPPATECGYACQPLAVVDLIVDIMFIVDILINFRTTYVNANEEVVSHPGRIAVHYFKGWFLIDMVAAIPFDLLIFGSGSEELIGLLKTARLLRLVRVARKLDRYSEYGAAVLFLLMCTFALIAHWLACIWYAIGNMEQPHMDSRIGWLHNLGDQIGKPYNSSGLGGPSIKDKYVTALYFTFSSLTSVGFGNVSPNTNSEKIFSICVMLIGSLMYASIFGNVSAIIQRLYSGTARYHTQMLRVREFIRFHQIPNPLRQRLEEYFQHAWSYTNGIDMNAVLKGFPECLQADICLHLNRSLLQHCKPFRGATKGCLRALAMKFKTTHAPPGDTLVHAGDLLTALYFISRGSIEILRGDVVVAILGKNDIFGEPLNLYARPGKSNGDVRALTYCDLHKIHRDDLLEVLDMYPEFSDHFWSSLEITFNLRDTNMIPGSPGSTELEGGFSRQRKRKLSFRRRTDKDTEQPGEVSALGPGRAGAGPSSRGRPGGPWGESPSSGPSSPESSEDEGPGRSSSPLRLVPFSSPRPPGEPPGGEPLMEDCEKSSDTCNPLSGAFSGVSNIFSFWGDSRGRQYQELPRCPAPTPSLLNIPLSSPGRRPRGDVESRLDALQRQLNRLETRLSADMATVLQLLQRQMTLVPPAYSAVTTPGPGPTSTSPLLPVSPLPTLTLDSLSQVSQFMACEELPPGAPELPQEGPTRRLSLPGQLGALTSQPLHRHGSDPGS
row,SMILES,"hERG current change (%, negative = inhibition) at 1uM [%]"
1,Brc1ccc(N=Nc2ccc3ccccc3n2)cc1,3.01
2,CC1CCCCC12NC(=O)N(CC(=O)NCCc1ccc(F)cc1)C2=O (stereo not drawn),-1.03
3,CCCNc1nc(N2CCOCC2)nc(N2CCOCC2)n1,-8.77
4,CCc1ccccc1NC(=O)Nc1ccc(F)cc1F,9.29
5,O=C(CSc1nnc2ccc3ccccc3n12)N1CCOCC1,7.04
6,Cc1ccc2[nH]c(=O)c3cc(C(=O)N4CCN(C(=O)c5ccco5)CC4)sc3c2c1,7.63
7,CC(c1ccccc1)n1cc(C(=O)NCc2ccccn2)nn1 (stereo not drawn),11.4
8,COc1ccc2nc3oc(C(=O)NCCCOC(C)C)cc3cc2c1,15.4
9,COc1ccc(CCNC(=O)CSc2nnc(Cn3c(=O)sc4ccccc43)n2C)cc1OC,2.35
10,Cc1nnnn1/C(=C\c1ccccc1)C(=O)OCC(=O)NC(C)(C)C,-3.57
11,COc1ccc(CCCC(=O)N/N=C/c2cccc(OC)c2O)cc1C,6.36
12,COC(=O)CC(c1ccccc1F)N1Cc2ccccc2C1=O (stereo not drawn),5.86
13,CC1(C)Cc2c(cnn2-c2ccccc2)C(NC(=O)CCCN2CCCC2=O)C1 (stereo not drawn),12.4
14,Cn1nccc1NC(=O)Nc1cccc(Cl)c1Cl,14.7
15,CCOc1ccc2nc(SCC(=O)NCc3ccc(OC)cc3)[nH]c2c1,12
16,Oc1ccc(Br)cc1-c1cc(-c2ccco2)[nH]n1,12.3
17,CCn1c(Sc2nc(C)nc3scc(-c4cccs4)c23)n[nH]c1=O,7.46
18,COc1ccc2cc(C(=O)NCCO)sc(=O)c2c1OC,-3.36
19,CCOC(=O)CSc1ncnc2c1c(-c1ccccc1)cn2-c1ccc(OC)cc1,10.9
20,CC(=O)CSc1nnc(NC(=O)CCc2ccccc2)s1,10.7
21,CCOC(=O)c1cnc2ccc(OC)cc2c1NCCc1ccc(OC)c(OC)c1,-69.5
22,Cc1ccc(-c2cc(C(=O)NCC3CCCO3)no2)cc1 (stereo not drawn),8.83
23,CC1(NC(=O)c2cc(Cl)nc3ccccc23)CCS(=O)(=O)C1 (stereo not drawn),9.68

row,SMILES,"hERG current change (%, negative = inhibition) at 1uM [%]"
1,COc1cc(/C=C2\SC(=S)N(NC(=O)c3ccc(O)cc3)C2=O)ccc1O,18.8
2,CCn1ccc(C(=O)Nc2ccsc2C(=O)OC)n1,-4.01
3,COc1ccc(OC)c(C(=O)NC(CC(N)=O)c2ccc(NCCN3CCOCC3)c([N+](=O)[O-])c2)c1 (stereo not drawn),16.1
4,O=C(C1CCC(CNS(=O)(=O)c2cccc3cccnc23)CC1)N1CCCC1 (stereo not drawn),14.3
5,CCCn1c(C(O)c2ccc3c(c2)OCO3)nc2ccccc21 (stereo not drawn),7.08
6,Cc1nn(-c2cc(N3CCNCC3)ccc2[N+](=O)[O-])c(=O)c2ccccc12,8.18
7,COc1ccc(NC(=O)Cn2c(=O)oc3cc(S(=O)(=O)N4CCCC4)ccc32)cc1,11.2
8,COc1cc(/C=C2/C(=O)NN(c3cccc(C)c3)C2=O)cc([N+](=O)[O-])c1O,8.24
9,COc1ccccc1OCC(=O)[O-].[Na+],6.84
10,CC(=O)Nc1ccccc1OCC(=O)NCCc1ccc(Cl)cc1Cl,6.34
11,CCCSc1nc2c(=O)[nH][nH]c(=O)c2n1Cc1ccccc1,1.37
12,O=C(Nc1ccc2[nH]c3c(c2c1)CCCC3)c1ccco1,3.95
13,COC(=O)c1ccccc1NC(=O)CSc1ccc(C)cc1,6.14
14,CCOc1ccc(OCC)c(NC(=O)CSc2nnc(C3CC3)n2CC)c1,3.67
15,CC(=O)NC12CC3CC(C1)CC(C(=O)OCC(=O)Nc1c(F)cccc1F)(C3)C2,5.05
16,Cc1nc2nc(C)c(NS(=O)(=O)c3ccc(Cl)cc3)c(=O)n2[nH]1,12.5
17,CCCCn1c(N)c(N(CC(C)C)C(=O)C2CCN(c3ncnc4sc(C)c(C)c34)CC2)c(=O)[nH]c1=O,-1.89
18,CC(NC(=O)Cc1ccc(-c2ccccc2)cc1)c1ccccc1 (stereo not drawn),-1.32
19,CC1=C[C@@H](C)[C@@H](c2ccccc2)OC1=O,7.9
20,COc1cc2c(cc1OC)CN(CCC(C)c1ccc(Cl)cc1)CC2.O=C(O)/C=C\C(=O)O (stereo not drawn),-50.5
21,CC(C)CN(CC(C)C)C(=O)C12CCC(C)(C(=O)O1)C2(C)C (stereo not drawn),7.37
22,O=C(Nc1ccc(N2CCOCC2)nc1)c1c(F)cccc1F,16.6
